Source: publication doi:10.1101/2022.02.03.478898 (bioRxiv, 2022)

Target: mTOR complex 2 (mTORC2), human core complex of mTOR, Rictor, mLST8 and mSin1 (human, UniProt P42345;Q6R327;Q9BVC4;Q9BPZ7)
Assay: SEC

B1: Inactive human kinase dead Akt1, FLAG-Akt1-K179M (enzyme)
chain: not shown
B1: binds.
